These results are taken from article PMC11637378, “Optogenetic screening of MCT1 activity implicates a cluster of non-steroidal anti-inflammatory drugs (NSAIDs) as inhibitors of lactate transport” (PLOS ONE, 2024).

This test deals with T1, R. norvegicus MCT1 (F360C) (UniProt P36035+P53987, F360C).
T1 sequence (P36035+P53987 with tags, fused parts or gaps P53987:F360C): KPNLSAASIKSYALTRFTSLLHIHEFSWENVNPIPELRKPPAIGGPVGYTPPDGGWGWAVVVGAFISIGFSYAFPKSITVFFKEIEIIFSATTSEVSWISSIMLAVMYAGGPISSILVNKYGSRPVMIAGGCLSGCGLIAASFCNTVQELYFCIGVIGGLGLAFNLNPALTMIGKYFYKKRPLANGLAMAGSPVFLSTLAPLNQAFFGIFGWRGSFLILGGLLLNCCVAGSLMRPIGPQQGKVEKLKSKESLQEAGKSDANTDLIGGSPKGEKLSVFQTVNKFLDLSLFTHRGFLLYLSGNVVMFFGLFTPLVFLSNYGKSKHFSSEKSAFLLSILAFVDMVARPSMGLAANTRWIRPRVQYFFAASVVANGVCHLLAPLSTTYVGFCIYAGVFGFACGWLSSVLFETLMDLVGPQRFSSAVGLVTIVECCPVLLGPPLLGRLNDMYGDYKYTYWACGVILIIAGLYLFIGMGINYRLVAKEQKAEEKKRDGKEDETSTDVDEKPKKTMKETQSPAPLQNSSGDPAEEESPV
It counts as cell-based.

Like-named read-outs stand apart in the source and are kept apart here.

With `CC1=C(C)C(=O)C(C(CCCCCC(=O)O)c2ccccc2)=C(C)C1=O` (stereo not shown) [Seratrodast], the Day1 was determined as 0.1847, the Day2 is reported as 0.7771, the Fraction stood at 0.2377 and the Offtarget_sub is on record as 0.0318. Besides, the Z.score is listed as -6.431.

The molecule `COc1cc(C)c2c(=O)c(-c3ccccc3)coc2c1` [METHOXYVONE] had a Day1 of 0.2578 and a Day2 of 0.8104. For the same molecule, where the note is “10 μM”, the Fraction was determined as 0.3181, the “Percent AZD3965” value is listed as 63.3221% and the Z.score is recorded as -3.147.

For `O=C(O)CCc1nc(-c2ccccc2)c(-c2ccccc2)o1` [Oxaprozin], the “Percent AZD3965” value is given as 7.1946% and the Z-score is -0.4497.

`COc1ccc(CCN(C)CCCOc2ccc(S(=O)(=O)c3c(C(C)C)c4ccccc4n3C)cc2)cc1OC.O=C(O)C(=O)O` [SR-33805] returned a Day1 of 0.336, a Day2 of 0.901, a Fraction of 0.3729 and an Offtarget_sub of 0.1773. In addition, the Z.score is given as -3.805.

For the molecule `Cc1ccc(S(=O)(=O)/C=C/C#N)cc1` [BAY 11-7082 (BAY 11-7821)], the Day1 worked out at 0.142, the Day2 came to 0.9047, the Fraction was determined as 0.157 and the “Percent AZD3965” value was found to be 99.1029%. The same molecule returned a Z.score of -4.054.

As to `O=[N+]([O-])c1ccc(O)c2ncccc12` [NITROXOLINE], the Day1 came to 0.0479 and the Day2 stood at 0.8236. Besides, for the setting “10 μM”, the Fraction is 0.05816, the “Percent AZD3965” value came to 118.213% and the Z.score is given as -5.965.

As for `CCOC(=O)[C@H](C)C[C@@H](Cc1ccc(-c2ccccc2)cc1)NC(=O)CCC(=O)O` [AHU377], the Day1 is on record as 0.5557, the Day2 was 0.8355, the Fraction is given as 0.6651 and the Percent turned out to be 19.5836%. The “Percent AZD3965” value came out at 19.5836% and the Z.score is -3.326.

`Br.Br.N=C(N)SCCN` [AMINOETHYLISOTHIOUREA DIHYDROBROMIDE] yielded a Day1 of 0.2008 and a Day2 of 0.9187. Also, where the note is “10 μM”, the Fraction came out at 0.2186, the “Percent AZD3965” value is reported as 83.8553% and the Z.score was -4.168.

Turning to `O=C(O)c1cccnc1Nc1cccc(C(F)(F)F)c1` [Niflumic acid], the “Percent AZD3965” value was 4.097% and the Z-score was -0.2787.

On to `Cc1ccc(C(=O)c2ccc(CC(=O)O)n2C)cc1` [Tolmetin], for which the “Percent AZD3965” value came out at 2.22% and the Z-score is reported as -0.07254.

`CC(=O)[C@]1(O)Cc2c(O)c3c(c(O)c2[C@@H](O[C@H]2C[C@H](N)[C@H](O)[C@H](C)O2)C1)C(=O)c1ccccc1C3=O` [Idarubicin] displayed a Day1 of 0.0863 and a Day2 of 0.8064. Besides, for the setting “10 μM”, the Fraction amounted to 0.107, the “Percent AZD3965” value stood at 106.927% and the Z.score is -6.017.

`Nc1ccc(-c2nc3ccc(-c4nc5cc(N)ccc5[nH]4)cc3[nH]2)cc1` [Ro 90-7501] registered a Day1 of 0.0517 and a Day2 of 0.9374. Besides, under “10 μM”, the Fraction is reported as 0.05515, the “Percent AZD3965” value came out at 117.555% and the Z.score was -7.983.

Take `CC(C)c1c(C(=O)Nc2ccccc2)c(-c2ccccc2)c(-c2ccc(F)cc2)n1CC[C@@H](O)C[C@@H](O)CC(=O)O` [Atorvastatin]: the Day1 turned out to be 0.2862, the Day2 was determined as 0.8679, the Fraction is reported as 0.3298 and the Percent was determined as 60.5626%. The Z.score is reported as -4.426.

As for `Cc1onc(-c2ccccc2)c1-c1ccc(S(N)(=O)=O)cc1` [Valdecoxib], the “Percent AZD3965” value is on record as -4.123% and the Z-score was 0.1994.

As for `C=CCc1ccc(O)c(-c2ccc(O)c(CC=C)c2)c1` [Honokiol], the Day1 amounted to 0.2643, the Day2 is 0.7615, the Fraction amounted to 0.3471 and the Percent was found to be 63.5702%. Besides, the “Percent AZD3965” value stood at 63.5702% and the Z.score is -3.314.

On to `CC(C)[C@@H]1CC[C@@H](C)C[C@H]1O` [Levomenthol], for which the “Percent AZD3965” value is -4.812% and the Z-score came to 0.2426.

The molecule `CC[N+](CC)(CC)CCOc1ccc(/C=C/c2ccccc2)cc1` [MG 624] came in with a Day1 of 0.0883 and a Day2 of 0.7745. In addition, for the setting “10 μM”, the Fraction is listed as 0.114, the “Percent AZD3965” value stood at 106.144% and the Z.score is recorded as -7.209.

With YM155, the Day1 turned out to be 0.2126, the Day2 came out at 0.8959, the Fraction came out at 0.2373 and the “Percent AZD3965” value turned out to be 82.5642%. The molecule also came in with a Z.score of -3.377.

On to `Cc1ccc(Nc2c(F)cccc2Cl)c(CC(=O)O)c1` [Lumiracoxib], for which the “Percent AZD3965” value is 20.0905% and the Z-score was -1.521.

`O=C(Nc1cc(C(F)(F)F)cc(C(F)(F)F)c1)c1cc(Cl)ccc1O` [IMD 0354]: the Day1 is recorded as 0.1382, the Day2 is 0.8884, the Fraction amounted to 0.1556 and the “Percent AZD3965” value worked out at 99.7056%. Moreover, the Z.score was -5.195.

Regarding `Cc1ccccc1-c1cc(N2CCN(C)CC2)ncc1N(C)C(=O)C(C)(C)c1cc(C(F)(F)F)cc(C(F)(F)F)c1` [Netupitant], the Day1 came to 0.4476, the Day2 stood at 0.8364, the Fraction was determined as 0.5352 and the Percent is given as 40.3583%. In addition, the “Percent AZD3965” value is given as 40.3583% and the Z.score is reported as -6.855.

Take `CCc1oc2ccccc2c1C(=O)c1cc(Br)c(O)c(Br)c1` [BENZBROMARONE]: the Day1 turned out to be 0.4409, the Day2 is given as 0.7738, the Fraction was 0.5698 and the “Percent AZD3965” value worked out at 28.6488%. Besides, the Z.score was -3.446.

Consider `CC(=O)Oc1ccccc1C(=O)O` [Aspirin, reference compound], for which the “Percent AZD3965” value was -5.902% and the Z-score was found to be 0.3904.

In the case of `C[C@@H]1CC[C@@]2(OC1)O[C@H]1[C@@H](O)[C@H]3[C@@H]4CC[C@H]5C[C@@H](O[C@@H]6O[C@H](CO)[C@H](O[C@@H]7O[C@H](CO)[C@@H](O)[C@H](O[C@@H]8OC[C@@H](O)[C@H](O)[C@H]8O)[C@H]7O[C@@H]7O[C@H](CO)[C@H](O)[C@H](O[C@@H]8O[C@H](CO)[C@@H](O)[C@H](O)[C@H]8O)[C@H]7O)[C@H](O)[C@H]6O)[C@H](O)C[C@]5(C)[C@H]4CC[C@]3(C)[C@H]1[C@@H]2C` [DIGITONIN], under “10 μM”, the Fraction worked out at 0.1212, the “Percent AZD3965” value was 105.169% and the Z.score is -6.479.

On to `COc1c(C)c2c(c(O)c1C/C=C(\C)CCC(=O)OCCN1CCOCC1)C(=O)OC2` [MYCOPHENOLATE MOFETIL], for which the Day1 turned out to be 0.2489, the Day2 is recorded as 0.868, the Fraction is 0.2868 and the “Percent AZD3965” value was 73.799%. This molecule displayed a Z.score of -4.824.

As for `O=C(/C=C/c1ccc(O)cc1)c1ccccc1O` [2',4-DIHYDROXYCHALCONE], under “10 μM”, the Fraction came to 0.1914, the “Percent AZD3965” value turned out to be 91.8807% and the Z.score was -5.661.

`O=C(/C=C/c1ccc(O)cc1)CC(=O)/C=C/c1ccc(O)cc1` [Bisdemethoxycurcumin] had a Day1 of 0.2019, a Day2 of 0.7507, a Fraction of 0.2689 and a Percent of 74.3976%. This molecule registered a Z.score of -4.186. Moreover, for the setting “10 μM”, the Fraction was 0.2689, the “Percent AZD3965” value was found to be 74.3976% and the Z.score is listed as -4.186.

On to `Cc1ccc(S(=O)(=O)N[C@@H](Cc2ccccc2)C(=O)CCl)cc1` [TCPK], for which the Day1 stood at 0.2366, the Day2 was 0.7851, the Fraction is 0.3014 and the Offtarget_sub was found to be 0.0833. The same molecule yielded a Z.score of -4.917.

On to `CC/C(=C(\c1ccccc1)c1ccc(OCCN(C)C)cc1)c1ccccc1.O=C(O)CC(O)(CC(=O)O)C(=O)O` [Tamoxifen citrate], for which the “Percent AZD3965” value was 46.4713%.

Take `NS(=O)(=O)c1ccc(-n2nc(C(F)(F)F)cc2-c2ccc(Cl)cc2)cc1` [SC-236, reference compound]: the “Day1 (OD600 after 24 hours non-permissive dark conditions)” value was 0.3998, the “Day2 (OD600 after additional 24 hours permissive conditions)” value is 0.7794, the “Percent AZD3965” value is 28.7982% and the Z-score is listed as -1.956. Also, where the note is “10 μM”, the “Fraction (growth in non-permissive phase divided by growth in permissive phase)” value was determined as 0.513, the “Percent (percent AZD3965 score)” value amounted to 28.7982% and the Z-score is recorded as -1.956.

The molecule `CC(C)Cn1cnc2c(N)nc3ccccc3c21` [Imiquimod] returned a Day1 of 0.0717, a Day2 of 0.8131, a Fraction of 0.08818 and a Percent of 111.279%. The “Percent AZD3965” value came out at 111.279% and the Z.score is listed as -5.088.

As for `CCCc1c(-c2ccc(O)cc2)nn(-c2ccc(O)cc2)c1-c1ccc(O)cc1` [Propylpyrazole triol], the Offtarget_sub is on record as -0.0238.
